This passage reports binding signal results from article PMC9911399, “Two distinct binding modes provide the RNA-binding protein RbFox with extraordinary sequence specificity”.

Sequences and labels used below:
B1: AACAUUU (DNA:RNA)
RNA: GGGAGACCGGAAUUCAGAUUGUCCAACAUUUUUAAAUCCCGUCGUAGCCACCA
DNA 1: CAATCTGAATTCCGGTCTCCC
DNA 2: TGGTGGCTACGACGGGATT
B2: CUAGAGU (DNA:RNA)
RNA: B1 RNA with A25C, A26U, C27A, A28G, U29A, U30G
DNA 1: CAATCTGAATTCCGGTCTCCC
DNA 2: TGGTGGCTACGACGGGATT
B3: AGGGAGU (DNA:RNA)
RNA: B1 RNA with A26G, C27G, A28G, U29A, U30G
DNA 1: CAATCTGAATTCCGGTCTCCC
DNA 2: TGGTGGCTACGACGGGATT
B4: GAUACCC (DNA:RNA)
RNA: B1 RNA with A25G, C27U, U29C, U30C, U31C
DNA 1: CAATCTGAATTCCGGTCTCCC
DNA 2: TGGTGGCTACGACGGGATT
B5: UCGGCCC (DNA:RNA)
RNA: GGGAGACCGGAAUUCAGAUUGUCCUCGGCCCUUAAAUCCCGUCGUAGCCACCA
DNA 1: CAATCTGAATTCCGGTCTCCC
DNA 2: TGGTGGCTACGACGGGATT
B6: AAGACAC (DNA:RNA)
RNA: B1 RNA with C27G, U29C, U30A, U31C
DNA 1: CAATCTGAATTCCGGTCTCCC
DNA 2: TGGTGGCTACGACGGGATT
B7: CCUUGAU (DNA:RNA)
RNA: B1 RNA with A25C, A26C, C27U, A28U, U29G, U30A
DNA 1: CAATCTGAATTCCGGTCTCCC
DNA 2: TGGTGGCTACGACGGGATT
B8: ACCAUCA (DNA:RNA)
RNA: B1 RNA with A26C, U30C, U31A
DNA 1: CAATCTGAATTCCGGTCTCCC
DNA 2: TGGTGGCTACGACGGGATT
B9: CUUAGUG (DNA:RNA)
RNA: B1 RNA with A25C, A26U, C27U, U29G, U31G
DNA 1: CAATCTGAATTCCGGTCTCCC
DNA 2: TGGTGGCTACGACGGGATT
B10: UGAGUAA (DNA:RNA)
RNA: B5 RNA with C26G, G27A, C29U, C30A, C31A
DNA 1: CAATCTGAATTCCGGTCTCCC
DNA 2: TGGTGGCTACGACGGGATT
B11: CAGCCCU (DNA:RNA)
RNA: B5 RNA with U25C, C26A, G28C, C31U
DNA 1: CAATCTGAATTCCGGTCTCCC
DNA 2: TGGTGGCTACGACGGGATT
B12: GUGACCC (DNA:RNA)
RNA: B5 RNA with U25G, C26U, G28A
DNA 1: CAATCTGAATTCCGGTCTCCC
DNA 2: TGGTGGCTACGACGGGATT
B13: UGGCAAG (DNA:RNA)
RNA: B5 RNA with C26G, G28C, C29A, C30A, C31G
DNA 1: CAATCTGAATTCCGGTCTCCC
DNA 2: TGGTGGCTACGACGGGATT
B14: GAAAUGU (DNA:RNA)
RNA: B1 RNA with A25G, C27A, U30G
DNA 1: CAATCTGAATTCCGGTCTCCC
DNA 2: TGGTGGCTACGACGGGATT
B15: CGACCCU (DNA:RNA)
RNA: B5 RNA with U25C, C26G, G27A, G28C, C31U
DNA 1: CAATCTGAATTCCGGTCTCCC
DNA 2: TGGTGGCTACGACGGGATT
B16: GGAGUCC (DNA:RNA)
RNA: B5 RNA with U25G, C26G, G27A, C29U
DNA 1: CAATCTGAATTCCGGTCTCCC
DNA 2: TGGTGGCTACGACGGGATT
B17: CAGUACA (DNA:RNA)
RNA: B5 RNA with U25C, C26A, G28U, C29A, C31A
DNA 1: CAATCTGAATTCCGGTCTCCC
DNA 2: TGGTGGCTACGACGGGATT
B18: GGAGGCG (DNA:RNA)
RNA: B5 RNA with U25G, C26G, G27A, C29G, C31G
DNA 1: CAATCTGAATTCCGGTCTCCC
DNA 2: TGGTGGCTACGACGGGATT
B19: ACGUACC (DNA:RNA)
RNA: B5 RNA with U25A, G28U, C29A
DNA 1: CAATCTGAATTCCGGTCTCCC
DNA 2: TGGTGGCTACGACGGGATT
B20: GCCGAGA (DNA:RNA)
RNA: B5 RNA with U25G, G27C, C29A, C30G, C31A
DNA 1: CAATCTGAATTCCGGTCTCCC
DNA 2: TGGTGGCTACGACGGGATT
B21: AUCUAAG (DNA:RNA)
RNA: B1 RNA with A26U, A28U, U29A, U30A, U31G
DNA 1: CAATCTGAATTCCGGTCTCCC
DNA 2: TGGTGGCTACGACGGGATT
B22: GCACCUA (DNA:RNA)
RNA: B5 RNA with U25G, G27A, G28C, C30U, C31A
DNA 1: CAATCTGAATTCCGGTCTCCC
DNA 2: TGGTGGCTACGACGGGATT
B23: GAUUUCA (DNA:RNA)
RNA: B1 RNA with A25G, C27U, A28U, U30C, U31A
DNA 1: CAATCTGAATTCCGGTCTCCC
DNA 2: TGGTGGCTACGACGGGATT
B24: AAUAUGG (DNA:RNA)
RNA: B1 RNA with C27U, U30G, U31G
DNA 1: CAATCTGAATTCCGGTCTCCC
DNA 2: TGGTGGCTACGACGGGATT
B25: GAGCGAA (DNA:RNA)
RNA: B1 RNA with A25G, C27G, A28C, U29G, U30A, U31A
DNA 1: CAATCTGAATTCCGGTCTCCC
DNA 2: TGGTGGCTACGACGGGATT
B26: CCGCAGC (DNA:RNA)
RNA: B5 RNA with U25C, G28C, C29A, C30G
DNA 1: CAATCTGAATTCCGGTCTCCC
DNA 2: TGGTGGCTACGACGGGATT
B27: AGGGUUC (DNA:RNA)
RNA: B1 RNA with A26G, C27G, A28G, U31C
DNA 1: CAATCTGAATTCCGGTCTCCC
DNA 2: TGGTGGCTACGACGGGATT
B28: CAGGGGU (DNA:RNA)
RNA: B1 RNA with A25C, C27G, A28G, U29G, U30G
DNA 1: CAATCTGAATTCCGGTCTCCC
DNA 2: TGGTGGCTACGACGGGATT
B29: UUUCAUU (DNA:RNA)
RNA: B1 RNA with A25U, A26U, C27U, A28C, U29A
DNA 1: CAATCTGAATTCCGGTCTCCC
DNA 2: TGGTGGCTACGACGGGATT
B30: GACCUUU (DNA:RNA)
RNA: B1 RNA with A25G, A28C
DNA 1: CAATCTGAATTCCGGTCTCCC
DNA 2: TGGTGGCTACGACGGGATT
B31: GCGCGGC (DNA:RNA)
RNA: B5 RNA with U25G, G28C, C29G, C30G
DNA 1: CAATCTGAATTCCGGTCTCCC
DNA 2: TGGTGGCTACGACGGGATT

Numbering of substitutions follows the chain as printed; changes in the protein carry UniProt numbers. The list shows a part of the results.

This test has as its target T1, RBFOX1 RRM RbFoxmut (Fox-RRM*) (Homo sapiens, UniProt Q9NWB1 109-208, R118D;E147R;N151S;E152T).
T1 sequence: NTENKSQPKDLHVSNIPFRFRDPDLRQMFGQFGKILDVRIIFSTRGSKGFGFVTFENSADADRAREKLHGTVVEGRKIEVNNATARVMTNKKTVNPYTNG
As to the kind of experiment: EMSA; HiTS-Eq, 1 nM pool, 10 min; buffer printed only for the single-RNA assays: 10 mM Tris pH 7.5, 150 mM NaCl, 3.4 mM EDTA, 0.001% NP-40, 30 C. Particulars: tags: His6 N-terminal (pET28a); label: 5' 32P. A digest of the protocol: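 A pool of RNA with 7 randomized nucleotides, 5′-radiolabelled and with DNA-annealed flanks, was equilibrated at 1 nM for 10 min in 50 µL with purified RbFox RRM, wild type or mutant, across increasing protein concentrations. Free RNA was separated by 8% native PAGE, excised, reverse-transcribed, barcoded by PCR and sequenced. Relative association constants were obtained from read-count changes of each RNA species versus the control reaction and normalised to the cognate motif.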
(A gel shift assay detects complexes by their altered migration in electrophoresis.)
For the molecule B1, the binding signal was 0.0677 KA relative to UGCAUGU. As for B2, the binding signal is 0.107 KA relative to UGCAUGU. For B3 the value was 0.151 KA relative to UGCAUGU. Under B4 stands 0.0638 KA relative to UGCAUGU; under B5, 0.0703 KA relative to UGCAUGU. As for B6, the binding signal was 0.0662 KA relative to UGCAUGU. For B7 the value was 0.0784 KA relative to UGCAUGU.

On to B8, for which the binding signal is 0.085 KA relative to UGCAUGU. Under B9 stands 0.151 KA relative to UGCAUGU; under B10, 0.0902 KA relative to UGCAUGU; under B11, 0.1 KA relative to UGCAUGU. For B12 the value was 0.0824 KA relative to UGCAUGU. Under B13 stands 0.103 KA relative to UGCAUGU; under B14, 0.0843 KA relative to UGCAUGU; under B15, 0.0969 KA relative to UGCAUGU. As to B16, the binding signal was 0.135 KA relative to UGCAUGU.

For B17, the binding signal was 0.0878 KA relative to UGCAUGU. For B18 the value was 0.12 KA relative to UGCAUGU. Regarding B19, the binding signal is 0.0903 KA relative to UGCAUGU.

Turning to B20, the binding signal was 0.127 KA relative to UGCAUGU. Under B21 stands 0.108 KA relative to UGCAUGU. For B22 the value was 0.123 KA relative to UGCAUGU; for B23, 0.0857 KA relative to UGCAUGU. For the molecule B24, the binding signal is 0.0878 KA relative to UGCAUGU. For the molecule B25, the binding signal is 0.102 KA relative to UGCAUGU. Turning to B26, the binding signal is 0.121 KA relative to UGCAUGU. Under B27 stands 0.198 KA relative to UGCAUGU; under B28, 0.113 KA relative to UGCAUGU; under B29, 0.0945 KA relative to UGCAUGU. Under B30 stands 0.0734 KA relative to UGCAUGU; under B31, 0.132 KA relative to UGCAUGU.
